Results taken from PubChem BioAssay AID588795 (National Center for Advancing Translational Sciences (NCATS), 2011).
Screen size: about 390,000 compounds; about 1,400 (0.36%) were called active. Inconclusive means that the source gave no clear call. Such entries were picked first, then a sample of the others. The call rests on the fitted dose curve; in most records, active means well fitted inhibition curve with a large enough effect; inconclusive means small, poorly fitted or top-dose-only effect; inactive means no such curve, though single readings can be large or run the other way. Where the call is inconclusive, the potency comes from a doubtful curve fit.

Target: Flap endonuclease 1 (Homo sapiens) (UniProt P39748)
Sequence of UniProt P39748 (P39748 whole entry, looked up): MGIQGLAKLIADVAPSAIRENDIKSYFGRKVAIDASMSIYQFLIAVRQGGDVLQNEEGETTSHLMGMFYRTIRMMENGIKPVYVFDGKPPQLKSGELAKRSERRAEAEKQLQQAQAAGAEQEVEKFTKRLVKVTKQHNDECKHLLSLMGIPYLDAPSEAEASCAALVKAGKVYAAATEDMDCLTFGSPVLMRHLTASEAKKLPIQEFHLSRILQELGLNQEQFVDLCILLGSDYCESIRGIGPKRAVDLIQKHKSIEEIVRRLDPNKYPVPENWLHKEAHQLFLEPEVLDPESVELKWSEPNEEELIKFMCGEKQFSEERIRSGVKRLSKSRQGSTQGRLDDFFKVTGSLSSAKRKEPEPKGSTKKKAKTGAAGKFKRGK
Test: qHTS Assay for the Inhibitors of Human Flap endonuclease 1 (FEN1). Further: nearly all actives have a fitted effect of over 65% in size.
Details: Recombinant FEN1 flap cleavage, fluorescence, 15 min; series mostly up to 114 µM; activity change, negative = inhibition: at the top concentration
How it was run: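 FEN1 at 10 nM preincubated with compounds 15 min at room temperature, then flap DNA substrate added at 50 nM final. Signal read at 0 and 15 min; concentration-response fitted with four-parameter Hill equation.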
On the % scale 0 is the no-effect control and ±100 the full control effect; potency means the concentration at half of the fitted maximal effect; tags describe the fitted curve by direction and shape.

SMILES | activity change, negative = inhibition | Potency
C#CCOCCOCCOCCNc1nc(N2CCN(C(=O)CCCCCCCCCCNC(=O)[C@@H](CCSC)n3cc(CCO)nn3)CC2)nc(N2CCN(C(=O)CCCCCCCCCCNC(=O)[C@H](CCC(=O)O)n3cc(CCCCCN)nn3)CC2)n1 | inactive: -23.1% | 
COc1ccc(CNCc2ccc(C(=O)O)s2)cc1 | inactive: 4.54% | 
COc1ccc(OC)c(CNC(=O)COc2cc(=O)n(C)c3ccccc23)c1 |  | inconclusive: 89.1 µM [inhibitor, partial curve, poor fit]
CCC(=O)Nc1ccc(N2CCCCC2)c(C(=O)Nc2ccc(OC)cc2)c1 |  | inconclusive: 31.6 µM [inhibitor, partial curve, poor fit]
O=C(CCS(=O)(=O)c1ccc(Br)s1)Nc1cc(C(F)(F)F)cc(C(F)(F)F)c1 |  | inconclusive: 17.8 µM [inhibitor, partial curve, poor fit]
CCCCN(CC)c1nc(N)c2c(N)nc(OCC)cc2c1C#N |  | inconclusive: 89.1 µM [inhibitor, partial curve, poor fit]
CCOc1ccc2c(c1)c(=O)c(C(=O)c1ccc(CC)cc1)cn2CC(=O)Nc1cccc(Cl)c1 | inactive: 13.1% | 
Nc1ccc2nc3c(=O)n(C4CCCCC4)c(=O)[nH]c3nc2c1 | inactive: -3.52% | 
CCc1nnc(NC(=O)CCC(=O)NCc2ccc(C)cc2)s1 | inactive: 14.9% | 
CC(C)c1nc(SCC(=O)Nc2ccc(C(=O)O)cc2)c2c3c(sc2n1)CCCC3 |  | inconclusive: 79.4 µM [inhibitor, partial curve, poor fit]
Cc1ccc(-c2cn3nc(N4CCCC(C(=O)NCc5ccc(F)cc5)C4)sc3n2)cc1 (configuration not stated) |  | inconclusive: 89.1 µM [inhibitor, single point]
CC(C)(C)c1ccc(C(=O)N2CCCC(c3nc4c(nnn4Cc4cccc(F)c4)c(=O)[nH]3)C2)cc1 (configuration not stated) |  | inconclusive: 50.1 µM [inhibitor, partial curve, poor fit]
CC(C)C(Cl)=NOC(=O)Nc1ccc(S(N)(=O)=O)cc1 | inactive: -5.16% | 
COc1ccc2ccccc2c1C(O)c1nccn1C (configuration not stated) |  | inconclusive: 89.1 µM [inhibitor, partial curve, poor fit]
NC1CCc2ccccc21 (configuration not stated) | inactive: -3.73% | 
Oc1c(C=C2N=c3ccccc3=N2)sc(=S)n1-c1ccccc1 | inactive: 6.36% | 
CCc1ccc(C(=O)CC2(O)C(=O)N(Cc3ccc(C)cc3)c3ccccc32)cc1 (configuration not stated) |  | inconclusive: 20 µM [inhibitor, partial curve, poor fit]
Cc1nn(Cc2ccccc2)c2sc(C(=O)N3CCN(Cc4ccc5c(c4)OCO5)CC3)cc12 | inactive: -6.26% | 
COc1ccc(SC[C@H](C)CN2CC[C@H](C(C)(C)C)CCC2=O)cc1 |  | inconclusive: 44.7 µM [inhibitor, partial curve, poor fit]
COc1cc(/C=C2\CCCc3c2nc2ccccc2c3C(=O)O)cc([N+](=O)[O-])c1O |  | inconclusive: 89.1 µM [inhibitor, single point]
Cc1ccn2c(=O)nc(SCC(=O)Nc3cccc4ccccc34)nc2c1 | inactive: 6.03% | 
CCOC(=O)C1CCCCN1Cc1cccc(OC)c1OC (configuration not stated) |  | inconclusive: 89.1 µM [inhibitor, single point]
Cc1ccc(-n2nnnc2SCC(=O)NC2CCCc3ccccc32)cc1 (configuration not stated) |  | inconclusive: 39.8 µM [inhibitor, single point]

SMILES | activity change, negative = inhibition | Potency
O=C1CCCC(O)=C1N=Nc1ccc(C(=O)O)cc1 |  | active: 44.7 µM
CN(C)CCNc1ncnc2sc(-c3ccccc3)cc12 |  | inconclusive: 39.8 µM [inhibitor, partial curve]
CCc1c(C)sc(NC(=O)c2cc3nc(-c4ccc(OC)cc4)cc(C(F)(F)F)n3n2)c1C(=O)OC | inactive: -2.19% | 
Cc1ccc(S(=O)(=O)/N=C2/C=C(Sc3ncn[nH]3)C(=O)c3ccccc32)cc1 |  | active: 50.1 µM
CCOc1ccc(N2C(=O)CC(N(Cc3ccco3)C(=O)CCC(=O)O)C2=O)cc1 (configuration not stated) | inactive: -1.17% | 
OCC1OC(n2cnc3c(=S)nc[nH]c32)C(O)C1O (configuration not stated) |  | inconclusive: 22.4 µM [inhibitor, single point]
CCCn1c(CCNc2nc(-c3cccc(Br)c3)cs2)nc2ccccc21 |  | inconclusive: 89.1 µM [inhibitor, partial curve, poor fit]
CCN(CC)CCC(=O)Nc1cccc2c1C(=O)c1ccccc1C2=O |  | active: 15.8 µM
COc1c(OC2OC(C(=O)O)C(O)C(O)C2O)cc(O)c2c(=O)cc(-c3ccccc3)oc12 (configuration not stated) |  | inconclusive: 7.94 µM [inhibitor, partial curve, poor fit]
Cc1ccccc1NC(=O)c1c(C)oc2ccc(O)c(CN3CCCCCC3)c12 |  | inconclusive: 89.1 µM [inhibitor, partial curve, poor fit]
CCOc1ccc2nc(NC3=NC(c4ccc(OC)cc4)CC(=O)N3)nc(C)c2c1 (configuration not stated) |  | active: 79.4 µM
COc1cc(OC)c2ccc(=O)oc2c1C(CC(=O)N1CCCC(C)C1)c1ccc2c(c1)OCO2 (configuration not stated) | inactive: 5.23% | 
Cc1cccc(Oc2ccc(NC(=O)C3CC=CCC3C(=O)O)cc2)c1 (configuration not stated) |  | inconclusive: 89.1 µM [inhibitor, single point]
Cc1ccc(NC(=O)CN(C)C(=O)CCC(=O)c2cccs2)cc1 | inactive: -0.547% | 
N#CCSc1nc2c(c(C3CC=CCC3)c1C#N)CCC2 (configuration not stated) |  | inconclusive: 50.1 µM [inhibitor, partial curve, poor fit]
CC(C)CCNC(=O)C(c1ccco1)N(Cc1ccccc1)C(=O)c1snc(C(N)=O)c1N (configuration not stated) |  | inconclusive: 89.1 µM [inhibitor, partial curve, poor fit]
O=C(CCCOc1ccc(Cl)cc1Cl)Nc1ccccn1 | inactive: -1.57% | 
O=C(O)CCCN1C(=O)/C(=C\c2ccc(-c3nc4ccccc4s3)o2)SC1=S |  | active: 35.5 µM
Cc1noc(/C=C/N(C)C)c1S(=O)(=O)N1CCc2ccccc21 |  | inconclusive: 44.7 µM [inhibitor, partial curve, poor fit]
CCC(C)Sc1cccc(-c2nc3ccccn3c2NCc2ccccc2)c1 (configuration not stated) |  | inconclusive: 56.2 µM [inhibitor, partial curve, poor fit]
Cc1cc(NS(=O)(=O)c2ccc(NC(=O)c3ccccc3F)cc2)no1 | inactive: 21.2% | 
CC1CCc2sc(NC(=O)C3CC(Cl)=CCC3C(=O)O)c(C#N)c2C1 (configuration not stated) | inactive: -9.93% | 
COc1ccc(C(=O)Nc2nnc(SCc3cc(=O)n4cccc(C)c4n3)s2)cc1 | inactive: 0.989% | 

SMILES | activity change, negative = inhibition | Potency
Cc1ccc(CNC(=O)CCCCCn2c(=O)c3sccc3n(CC(=O)Nc3c(C)cc(C)cc3C)c2=O)cc1 | inactive: -15.7% | 
O=C1NN(c2cccc(Br)c2)C(=O)/C1=C/c1ccc(-c2cc([N+](=O)[O-])ccc2O)o1 |  | inconclusive: 56.2 µM [inhibitor, partial curve, poor fit]
c1ccc(SSc2ccccn2)nc1 |  | inconclusive: 89.1 µM [inhibitor, single point]
Cc1cc2cc(CNC(=O)c3ccc(Br)o3)ccc2n1C |  | inconclusive: 17.8 µM [inhibitor, full curve, poor fit]
O=C(Nc1sc2c(c1C(=O)Nc1cccc(Cl)c1)CCCC2)c1cccs1 |  | inconclusive: 89.1 µM [inhibitor, single point]
CC(/C=C1\SC(=S)N(NS(=O)(=O)c2ccc(C)cc2)C1=O)=C\c1ccccc1 |  | inconclusive: 89.1 µM [inhibitor, partial curve, poor fit]
COc1cccc(CN2CCN(Cc3cc4ccccc4o3)CC2CCO)c1 (configuration not stated) |  | inconclusive: 35.5 µM [inhibitor, single point]
Cc1ccc(-c2[nH]c3cc(C(N)=O)ccc3c(=O)c2O)cc1 |  | inconclusive: 22.4 µM [inhibitor, partial curve, poor fit]
OC(CON=C1c2ccccc2-c2ccccc21)CN1CCNCC1 (configuration not stated) |  | inconclusive: 56.2 µM [inhibitor, partial curve, poor fit]
CCOC(=O)c1sc(N2C(=O)C(O)=C(C(=O)c3ccco3)C2c2ccco2)nc1C (configuration not stated) | inactive: -20.4% | 
Cc1ccc2nc(/C(C#N)=C\c3ccc(N4CCOCC4)o3)[nH]c2c1 |  | inconclusive: 44.7 µM [inhibitor, partial curve, poor fit]
CCOC(=O)c1c(-c2ccc(-c3ccccc3)cc2)csc1NC(=O)CNCCN(C)C |  | inconclusive: 89.1 µM [inhibitor, single point]
CCCC(=O)N(Cc1cc(=O)[nH]c2ccccc12)c1cccc(C)c1 | inactive: 0.726% | 
Cc1c(C(=O)N2CCC(C)CC2)c(S(=O)(=O)Nc2cccc(C(F)(F)F)c2)c(C)n1C | inactive: 6.65% | 
COCCN1C(=O)c2oc3ccc(C)cc3c(=O)c2C12C(=O)N(C)c1ccccc12 (configuration not stated) |  | inconclusive: 89.1 µM [inhibitor, partial curve, poor fit]
COC(=O)c1cc(=O)n2c(-c3ccccc3)csc2n1 |  | inconclusive: 89.1 µM [inhibitor, partial curve, poor fit]
CCOC(=O)c1cc(-c2ccc(F)cc2)n(CCC(=O)Nc2nc3ccc(OC)cc3s2)c1C |  | inconclusive: 50.1 µM [inhibitor, partial curve, poor fit]
O=C(Nc1nccs1)c1ccc(CSc2nnnn2-c2ccccc2)cc1 |  | inconclusive: 79.4 µM [inhibitor, partial curve, poor fit]
COc1cccc(Oc2cnc(N)nc2-c2ccc(OC)cc2O)c1 |  | inconclusive: 50.1 µM [inhibitor, partial curve, poor fit]
N[C@@H](C(=O)O)c1ccc(O)c(C(=O)O)c1 |  | active: 50.1 µM
CC(C)C(C(=O)NCC1CCCO1)N(Cc1ccco1)C(=O)CNS(=O)(=O)c1ccccc1 (configuration not stated) | inactive: 7.83% | 
